{
  "source": "PubChem BioAssay AID1347120",
  "about": "(National Center for Advancing Translational Sciences (NCATS), 2019)",
  "note": "Among all 390,000 compounds or so, about 930 (0.24%) were called active. The shares of active, inactive and inconclusive entries below differ from those in the screen. Calls come from the whole dose curve; as a rule, active = well fitted activation curve with a large enough effect; inconclusive = small, poorly fitted or top-dose-only effect; inactive = no such curve, though single readings can be large or run the other way. Where the call is inconclusive, the potency comes from a doubtful curve fit. Potency is the fitted concentration of half-maximal effect; tags give direction and shape of the fitted curve.",
  "data": [
    {"experiment": "qHTS for Suppressors of FUS Proteinopathy: Primary screen using FUS-linked yeast assay; note: nearly all actives have a fitted effect of over 55% in size", "conditions": "S. cerevisiae FUS-expressing, OD600, 24 h; Potency: growth rescue; series mostly up to 76.6 µM", "summary_of_the_method": "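Yeast FUS proteinopathy model; galactose-induced FUS (2%), starting OD 0.005. Cpds in dilution series, 24hr, 30C, 99% humidity. Abs 600 nm growth. Pos ctrl CP55940 (top 92uM final); neg ctrl DMSO.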", "values": [
      {"smiles": "Cc1ccccc1OC(C)C(=O)Nc1ccc2c(c1)OCCO2", "note": "(stereo not drawn)", "Potency": "inactive"},
      {"smiles": "COc1ccc(CCNC(=O)CCc2cn(Cc3ccc(C)cc3)c3ccccc23)cc1OC", "Potency": "inactive"},
      {"smiles": "OC(COC(c1ccc(Cl)cc1)c1ccc(Cl)cc1)CN1CCCC1", "note": "(stereo not drawn)", "Potency": "inconclusive: 39.8 µM [activator, partial curve, poor fit]"},
      {"smiles": "Cc1ccc(NC(=O)c2ccc(-n3cccn3)c([N+](=O)[O-])c2)cc1", "Potency": "inactive"},
      {"smiles": "CCOC(=O)N1CCN(C(=O)c2ccc3c(c2)N(Cc2cc(C)ccc2C)C(=O)c2ccccc2S3=O)CC1", "note": "(stereo not drawn)", "Potency": "inconclusive: 15.8 µM [activator, partial curve, poor fit]"},
      {"smiles": "CCC(Sc1nc2ccncc2[nH]1)C(=O)Nc1ccc(F)cc1", "note": "(stereo not drawn)", "Potency": "inactive"},
      {"smiles": "Cc1nc(Nc2ccc3c(c2)OCCO3)c2c(C)c(C)sc2n1", "Potency": "inconclusive: 31.6 µM [activator, partial curve, poor fit]"},
      {"smiles": "Cn1nc(C(F)(F)F)cc1C(=O)Nc1ccc(-c2ccno2)cc1", "Potency": "inactive"},
      {"smiles": "OC[C@@H]1CN(Cc2ccc(-c3ccccc3)cc2)C[C@H](n2cnc3c(Nc4ccccc4)ncnc32)O1", "Potency": "inconclusive: 31.6 µM [activator, single point]"},
      {"smiles": "O=C(OCC(=O)N1CCN(C(=O)c2ccco2)CC1)c1cn(-c2ccccc2)nc1-c1ccccc1", "Potency": "inconclusive: 50.1 µM [activator, single point]"},
      {"smiles": "Cc1ccc(Cl)cc1N1CCN(C(=O)Cn2ncc3c([nH]c4ccccc43)c2=O)CC1", "Potency": "inactive"},
      {"smiles": "COc1cccc(-n2c(=O)c3sc4ccccc4c3n(CC(=O)Nc3ccccc3OC)c2=O)c1", "Potency": "inactive"},
      {"smiles": "Cc1ccccc1CN1CCCCC(NC(=O)Nc2ccccc2-c2ccccc2)C1=O", "note": "(stereo not drawn)", "Potency": "inconclusive: 25.1 µM [activator, single point]"},
      {"smiles": "CCCCCCCCN1C(=O)[C@H](CC(=O)NCCCN2CCCC2=O)C[C@@]2(C(=O)OC)CC(C)(C)CC=C12", "Potency": "inconclusive: 15.8 µM [activator, partial curve]"},
      {"smiles": "COc1ccc(C(=O)C=CNNC(=O)c2ccc(Cl)cc2)cc1", "Potency": "inconclusive: 31.6 µM [activator, partial curve, poor fit]"},
      {"smiles": "COc1cccc(-c2ccc(CC[C@H]3O[C@H]4CC[C@@H](CO)O[C@H]4C[C@H]3NC(=O)c3cnccn3)cc2)c1", "Potency": "inconclusive: 28.2 µM [activator, single point]"},
      {"smiles": "CC1CCN(S(=O)(=O)c2ccc3c(c2)N(CC(=O)NCCc2ccc(Cl)cc2)C(=O)CO3)CC1", "Potency": "inconclusive: 50.1 µM [activator, single point]"},
      {"smiles": "CCOC(=O)c1c(C)[nH]c(C)c1S(=O)(=O)N1CCC(C(=O)N2CCN(c3cc(C)ccc3C)CC2)CC1", "Potency": "inconclusive: 39.8 µM [activator, single point]"}
    ]}
  ]
}
